# Hit rate of the full screen: of about 420,000 compounds, about 64,000 (15%) were called active. The shares of active, inactive and inconclusive entries below differ from those in the screen. Calls follow the shape of the dose curve; as a rule, active = well fitted inhibition curve with a large enough effect; inconclusive = small, poorly fitted or top-dose-only effect; inactive = flat fitted curve, though single readings scatter. No potency is given beside an inconclusive call; the fits are too rough.
# Assay: qHTS for Inhibitors of human tyrosyl-DNA phosphodiesterase 1 (TDP1): qHTS in cells in absence of CPT; also: nearly all actives have a fitted effect of over 55% in size
# Conditions: DT40 Tdp1-/- hTDP1 cells, no CPT, ATP luminescence, 48 h; activity change, negative = growth inhibition: at 46.2 µM (top of the series) unless noted
# Method in brief: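 Compound effects on proliferation are scored in DT40 Tdp1-/-;hTDP1 cells in the absence of CPT. ATP levels (CellTiter-Glo luminescence) are recorded after a ≥48 hr, 37 °C incubation.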
# % is scaled to controls: 0 for no effect and ±100 for the full control effect; potency is read from the fitted curve at half-maximal effect; tags tell the direction and shape of the fitted curve.
Structure (SMILES),Potency,"activity change, negative = growth inhibition"
Cc1ccc(SC[C@H](Cc2ccccc2)N2CCN(CCc3ccccc3)CCC2=O)cc1,"inconclusive [inhibitor, single point]",–
CSc1ccccc1NC(=O)CN(c1cccc(C)c1)S(C)(=O)=O,–,inactive: -26.3%
COc1ccc(N2CCCC2)c(NC(=O)COc2ccccc2Cl)c1,"inconclusive [inhibitor, single point]",–
NS(=O)(=O)c1ccc(N2CCOCC2)c(C(=O)NCc2ccc3c(c2)OCO3)c1,"inconclusive [inhibitor, single point]",–
CCCc1nn2c(=O)cc(COC(=O)c3ccc(NC(=O)C(C)Oc4ccccc4)cc3)nc2s1 (stereo not drawn),–,inactive: -11.2%
CSc1nc(-c2ccc(F)cc2)nc2c1Cc1c(CO)cnc(C)c1O2,–,inactive: -1.83%
COc1ccc(S(=O)(=O)N2C3CCC2CC(NC(=O)NC2CCCCC2)C3)cc1 (stereo not drawn),"inconclusive [inhibitor, single point]",–
Cc1ccc2nc(-c3cccnc3)cc(C(=O)Nc3ccc(F)cc3C)c2c1,"inconclusive [inhibitor, single point]",–
CCOC(=O)Cc1cc(=O)n2[nH]c(-c3ccccc3)c(-c3ccccc3)c2n1,"inconclusive [inhibitor, partial curve]",–
COc1cc(C2CC(=O)Oc3cc(C)c(Cl)c(C)c32)cc(OC)c1OC (stereo not drawn),"inconclusive [inhibitor, single point]",–
CCC(C)[C@H](NC(=O)N1c2ccccc2NC(=O)[C@@H]1C(C)C)C(=O)N[C@@H](Cc1ccccc1)C(=O)O (stereo partly drawn),–,inactive: -4.99%
COc1ccc2nc(N3CCCC(O)C3)c(C#N)cc2c1 (stereo not drawn),–,inactive: -24.3%
COC(=O)[C@@]12CCCCN1[C@H](c1ccc(-c3cccc(Cl)c3)c(OC)c1)[C@@H]1C(=O)N(C)C(=O)[C@@H]12,active: 20.6 µM,–
O=C(NC1CCCc2ccccc21)C1CCN(S(=O)(=O)c2ccccc2F)CC1 (stereo not drawn),"inconclusive [inhibitor, partial curve, poor fit]",–
O=C(CSc1nnc(COc2ccc(Cl)cc2)o1)NC1CC2CCC1C2 (stereo not drawn),"inconclusive [inhibitor, single point]",–
CC1CC(C)CN(CCCNC(=O)COc2cc(=O)n(C)c3ccccc23)C1 (stereo not drawn),"inconclusive [inhibitor, single point]",–
CCOC(=O)C(=CNc1cc(C)ccc1-n1cccc1)C(=O)OCC,active: 16.4 µM,–
O=C(O)c1ccccc1C(=O)NNc1ccc(Cl)cc1Cl,–,inactive: 16.3%
Cc1cc(C)c(NS(=O)(=O)c2c(C)noc2C)c(C)c1,"inconclusive [inhibitor, single point]",–
CCOC(=O)C1CCN(C(=O)c2oc3ccc4c(c3c2C)C(O)CC2(CCCCC2)O4)CC1 (stereo not drawn),"inconclusive [inhibitor, single point]",–
O=Cc1ccc2oc3nc4n(c(=O)c3c(=O)c2c1)CCCS4,"inconclusive [inhibitor, single point]",–
CC(OC(=O)Cc1n[nH]c(=O)c2ccccc12)C(=O)Nc1cccc([N+](=O)[O-])c1 (stereo not drawn),–,inactive: -20.8%
CC(=O)c1ccc(OCCCC(=O)N2CCN(S(=O)(=O)c3ccc(C)cc3C)CC2)cc1,"inconclusive [inhibitor, single point]",–

Structure (SMILES),Potency,"activity change, negative = growth inhibition"
COc1ccc(/C=N/NC(=O)c2ccc(Br)cc2)cc1Cn1cc(Cl)cn1,"inconclusive [inhibitor, single point]",–
O=C(CCOc1ccccc1)Nc1ccc([N+](=O)[O-])cc1,"inconclusive [inhibitor, full curve, poor fit]",–
O=C(CSc1cn(CC(=O)N2CCCCC2)c2ccccc12)Nc1ccccc1F,"inconclusive [inhibitor, single point]",–
COc1ccccc1-c1noc(CSc2nc3ccc(C)cc3[nH]2)n1,active: 16.4 µM,–
COc1ccc(C)cc1NC(=O)CNc1ccc(C(C)=O)cc1,"inconclusive [inhibitor, partial curve]",–
Nc1nc(N2CCCCC2)c(C=O)c(N2CCCCC2)n1,"inconclusive [inhibitor, single point]",–
CCCn1c(=S)[nH]c2ccccc2c1=O,"inconclusive [inhibitor, single point]",–
CCCCCOc1ccc(C(=O)N(Cc2ccco2)C2CCS(=O)(=O)C2)cc1 (stereo not drawn),"inconclusive [inhibitor, single point]",–
COc1ccccc1C(=O)Nc1nc2cc3c(cc2s1)OCCO3,active: 5.8 µM,–
Cc1ccc(S(=O)(=O)NCC2CCC(C(=O)NCc3cccnc3)CC2)cc1 (stereo not drawn),"inconclusive [inhibitor, single point]",–
CC(CNC(=O)C1CCN(Cc2cc3ccccc3n2Cc2ccccc2)CC1)c1ccccc1 (stereo not drawn),active: 16.4 µM,–
c1ccc2c(c1)oc1c(NCc3ccc4c(c3)OCO4)ncnc12,"inconclusive [inhibitor, single point]",–
Cc1ccc(-c2cc(C(=O)N3CCc4ccccc4C3)[nH]n2)cc1C,"inconclusive [inhibitor, single point]",–
O=C(C=CC(=O)OC1CCCCC1)OC1CCCCC1,"inconclusive [inhibitor, single point]",–
C=CC(C1=CC(=O)C(OC)=CC1=O)c1ccc(OC)cc1 (stereo not drawn),active: 2.91 µM,–
Cc1c(Cl)cccc1NC(=O)CCn1c(=O)c2cccn2c2ccccc21,active: 16.4 µM,–
COc1ccc(N=C2C(=Nc3ccc(OC)cc3)N(c3ccc(OC)cc3)C(=S)N2C)cc1,"inconclusive [inhibitor, partial curve]",–
O=C(CC1CCCC1)NCCS(=O)(=O)N1CCN(c2ccccc2)CC1,"inconclusive [inhibitor, single point]",–
CCOC(=O)NC(CC(=O)O)c1ccc(OC)c(OC)c1 (stereo not drawn),–,inactive: 8.63%
CCOC(=O)c1c(NC(=O)COC(=O)CC(NC(C)=O)c2ccccc2)sc(C(=O)NC)c1C (stereo not drawn),–,inconclusive: -31.4% [inhibitor]
COc1ccc(NC(=O)c2cc3ccccc3o2)cc1OC,–,inactive: -17.6%
COc1ccc(NC(=O)CN(C)C(=O)c2cccc(S(=O)(=O)N3CCN(c4ccccc4)CC3)c2)cc1,active: 20.6 µM,–
COc1ccccc1N(CC(=O)Nc1ccc(C)cc1Cl)S(=O)(=O)c1cccs1,–,inconclusive: -31.1% [inhibitor]

Structure (SMILES),Potency,"activity change, negative = growth inhibition"
CC(NC(=O)COc1ccccc1)C(c1ccccc1)N1CCN(C)CC1 (stereo not drawn),–,inconclusive: -30.3% [inhibitor]
N[C@@](C(=O)O)(c1ccc(P(=O)(O)O)cc1)C1CC1,–,inactive: -7.86%
COc1ccccc1/C=N/NC(=O)C(=O)Nc1ccccc1OC(F)(F)C(F)F,"inconclusive [inhibitor, single point]",–
CCOc1ccccc1NC(=O)CSc1nccn1-c1ccc(Cl)cc1,"inconclusive [inhibitor, partial curve]",–
CN(C)S(=O)(=O)Oc1ccsc1C(=O)Nc1ccccc1Cl,"inconclusive [inhibitor, single point]",–
CC(NC(=O)c1ccc(CS(=O)(=O)Cc2ccccc2F)o1)c1ccc2c(c1)OCCO2 (stereo not drawn),"inconclusive [inhibitor, single point]",–
Cc1ccc(C)c(NC(=O)c2ccccc2NC(=O)C2CCCO2)c1 (stereo not drawn),"inconclusive [inhibitor, single point]",–
COc1ccc(-c2oc3c(CC=C(C)C)c(O[C@H]4OC(CO)C(O)C(O)C4O)cc(O)c3c(=O)c2O[C@@H]2OC(C)C(O)C(O)C2O)cc1 (stereo partly drawn),–,inactive: -11%
COCCCNC(=O)CC1C[C@H](C(=O)N(C(C)C)C(C)C)[C@@]2(C)c3[nH]c4ccc(OC)cc4c3CCN2C1=O (stereo partly drawn),"inconclusive [inhibitor, single point]",–
COc1ccc(C(c2nnnn2Cc2cccs2)N2CCN(c3ccccc3)CC2)cc1OC (stereo not drawn),"inconclusive [inhibitor, single point]",–
CC(Sc1ncnc2sc(-c3ccccc3)cc12)C(N)=O (stereo not drawn),–,inactive: 1.88%
Cn1c(-c2ccc(F)cc2)cnc1NCc1cccc(F)c1,active: 18.4 µM,–
Fc1ccc(NC(=S)Nc2cccnc2)cc1Cl,active: 23.1 µM,–
CC1(c2nnc(-c3cccc(Cl)c3)o2)CC(c2cccc([N+](=O)[O-])c2)=NO1 (stereo not drawn),"inconclusive [inhibitor, partial curve, poor fit]",–
Cc1ccc(S(=O)(=O)c2c(N)n(/N=C/c3ccco3)c3nc4ccccc4nc23)cc1,"inconclusive [inhibitor, single point]",–
CCCCC(=O)Nc1ccc(C(=O)NCCCn2ccnc2)cc1,–,inactive: 13.2%
COc1ccc(C(=O)NCCN2C(=O)S/C(=C\c3cccnc3)C2=O)c(OC)c1OC,"inconclusive [inhibitor, single point]",–
CN(C(=O)COC(=O)c1ccccc1Cc1ccccc1)C1CCS(=O)(=O)C1 (stereo not drawn),–,inactive: 21.2%
CCN(C(=O)c1cc2c(=O)n3ccccc3nc2n1CCCOC)C1CCCCC1,"inconclusive [inhibitor, single point]",–
O=C(NC1CCCCC1)C1c2ccccc2OCC(=O)N1CCCN1CCOCC1 (stereo not drawn),–,inactive: 2.81%
Cc1ccc(NC(=O)CCNS(=O)(=O)c2ccccc2)c(C(=O)c2ccccc2)c1,"inconclusive [inhibitor, single point]",–
COc1ccc(Cl)cc1NC(=O)c1cc2c(s1)-c1ccccc1OC2,"inconclusive [inhibitor, partial curve]",–

# Reference: PubChem BioAssay AID686978 (National Center for Advancing Translational Sciences (NCATS), 2013)
